# Measurements from a collection of fitness landscapes (doi:10.1038/s41467-024-54723-y).
# Whole data set: some 18,000 sequences, median “TetR repression strength (sort-seq, GFP reporter)” near 0.23, cut for the highest 2% near 0.68. Some of the results follow.
# Biological target: TetR (class B, Tn10) (UniProt P04483)
# Test: TetR repression strength (sort-seq, GFP reporter) (relative to tetO2 = 1); higher = stronger repression
# Conditions: E. coli
# Procedure, shortened: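 Repression strength was calculated by subtracting the read-weighted mean bin from the top bin index plus one and dividing by the unaltered operator's value. The plasmid library was low-copy in E. coli SIG10-MAX, with eight randomized operator positions between a constitutive promoter and sfGFP and constitutive TetR. Cultures grew 5 h at 37 °C in LB containing 50 µg/mL chloramphenicol before 10^6 cells were sorted by FACS into 13 fluorescence bins, each sequenced on Illumina. Three independent transformations were averaged for members having ≥30 reads in all replicates and a CV ≤0.5.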
# UniProt P04483, sequence (P04483 whole entry): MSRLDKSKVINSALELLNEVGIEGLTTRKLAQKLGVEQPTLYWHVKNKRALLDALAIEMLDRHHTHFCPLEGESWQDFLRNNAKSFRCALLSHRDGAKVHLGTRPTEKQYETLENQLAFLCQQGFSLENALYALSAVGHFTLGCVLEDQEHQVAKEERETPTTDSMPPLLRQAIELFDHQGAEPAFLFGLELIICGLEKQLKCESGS
row,Sequence,TetR repression strength
1,TCCCGGGGAGTCATAGAGA,0.235
2,TCCCGCGTAGTATACGAGA,0.302
3,TCCCGGATAGTGCGAGAGA,0.325
4,TCCCAAGAAGTGTGAGAGA,0.265
5,TCCCTCGAAGTCGCCGAGA,0.26
6,TCCCGACAAGTAGGTGAGA,0
7,TCCCGAATAGTGCATGAGA,0.271
8,TCCCGTTGAGTAGTTGAGA,0.0625
9,TCCCATGCAGTTTTAGAGA,0.205
10,TCCCTGAAAGTGTTAGAGA,0.311
11,TCCCCAGGAGTTCATGAGA,0.248
12,TCCCTTCTAGTCCGAGAGA,0.336
13,TCCCTGGTAGTGTATGAGA,0.147
14,TCCCGCGGAGTTCGGGAGA,0.169
15,TCCCTCCTAGTTTCCGAGA,0.418
16,TCCCTTCTAGTTGCTGAGA,0.73
17,TCCCGGTGAGTATGCGAGA,1.15
18,TCCCAAGGAGTTTAAGAGA,0.357
19,TCCCAGAAAGTAGTCGAGA,0.214

row,Sequence,TetR repression strength
1,TCCCCCTTAGTCTAAGAGA,0.228
2,TCCCGGCAAGTGTGCGAGA,0.191
3,TCCCGGGAAGTGGGCGAGA,0.164
4,TCCCAGAAAGTCAGTGAGA,0.298
5,TCCCGGGGAGTATCGGAGA,0.0558
6,TCCCAGCTAGTGTTGGAGA,0.197
7,TCCCAATGAGTAAAGGAGA,0.364
8,TCCCCGATAGTGTGTGAGA,0.191
9,TCCCAGCCAGTCGCAGAGA,0.301
10,TCCCTAGGAGTCCGAGAGA,0.187
11,TCCCAGTTAGTTGTTGAGA,0.0531
12,TCCCGTTAAGTATTTGAGA,0.246
13,TCCCAGGTAGTACTCGAGA,0.107
14,TCCCGGGGAGTTGCGGAGA,0.0506
15,TCCCAATCAGTGGTGGAGA,0.139
16,TCCCAATCAGTGTCAGAGA,0.335
17,TCCCTCAGAGTGGAGGAGA,0.169
18,TCCCGGGCAGTATCGGAGA,0.128
19,TCCCCTTGAGTCTTAGAGA,0.359

row,Sequence,TetR repression strength
1,TCCCTTGAAGTTAGTGAGA,0.184
2,TCCCGGCTAGTGTGTGAGA,0.238
3,TCCCTTGTAGTTGAGGAGA,0.251
4,TCCCCTTCAGTGGAGGAGA,0.65
5,TCCCTAGGAGTGGTAGAGA,0.278
6,TCCCTGTAAGTATGGGAGA,0.174
7,TCCCAATAAGTGCGGGAGA,0.0561
8,TCCCTTCGAGTGATGGAGA,0.307
9,TCCCGGCCAGTCGTGGAGA,0.0471
10,TCCCCTCCAGTCAGTGAGA,0.383
11,TCCCACTAAGTGAGGGAGA,0.391
12,TCCCTGGTAGTGTAAGAGA,0.217
13,TCCCCTCGAGTGTAGGAGA,0.305
14,TCCCAGAGAGTATACGAGA,0.205
15,TCCCCGTGAGTAGTGGAGA,0.229
16,TCCCAGAGAGTGCCTGAGA,0.141
17,TCCCGACTAGTAGAAGAGA,0.316
18,TCCCTTATAGTCACAGAGA,0.268
